Results: the supplement of paper PMC12217912
The list shows a part of the results. Sequences were assembled here from the parent chain. Values near 0.05 are background.

B1: TEV protease; numbered along this chain (parent)
chain: MGESLFKGPRDYNPISSSICHLTNESDGHTTSLYGIGFGPFIITNKHLFRRNNGTLVVQSLHGVFKVKDTTTLQQHLVDGRDMIIIRMPKDFPPFPQKLKFREPQREERICLVTTNFQTKSMSSMVSDTSCTFPSGDGIFWKHWIQTKDGQCGSPLVSTRDGFIVGIHSASNFTNTNNYFTSVPKNFMELLTNQEAQQWVSGWRLNADSVLWGGHKVFMVKPEEPFQPVKEATQL

Variants of: B1
Experiment: raw area under fraction-flipped curve 0-4 h after induction (AUC4h, not background-subtracted), DNA-recorder readout of cleavage of the substrate (dimensionless); higher = more cleavage of the substrate by the protease variant
Details: temperature: 34 °C; time window: 0-4 h after rhamnose induction
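Note: Bxb1 expression induced with 0.2% (w/v) L-rhamnose at OD600 near 0.5, cultures sampled hourly, flipped fraction per protease–substrate barcode pair counted by paired-end Illumina sequencing.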

Variant | area with substrate ENLDFQS | area with substrate ENLGFQS | area with substrate ENLHFQS | area with substrate ENLIFQS | area with substrate ENLKFQS | area with substrate ENLLFQS | area with substrate ENLNFQS | area with substrate ENLPFQS | area with substrate ENLSFQS | area with substrate ENLVFQS | area with substrate ENLWFQS | area with substrate ENLEFQS | area with substrate ENLRFQS | area with substrate ENLFFQS | area with substrate ENLTFQS | area with substrate ENLMFQS | area with substrate ENLQFQS
MGESLFKGPRDYNPISSSICHLTNESDGHTTSLYGIGFGPFIITNKHLFRRNNGTLVVQSLHGVFKVKDTTTLQQHLVDGRDMIIIRMPKDFPPFPQKLKFREPQREERICLVTTNFQTKSMSSMVSDTSCTFPSGDGIFWKHWIQTKDGQCGSPLVSTRDGFIVGIHSASNFHNTNNYFTSVPKNFMELLTNQEAQQWVSGWRLNADSVLWGGHKVFMVKPEEPFQPVKEATQL [T174H] | 0.0636 | 0.0613 | 0.069 | 0.0572 | 0.0684 | 0.0814 | 0.0638 | 0.0526 | 0.0532 | 0.0709 | 0.0635 | – | – | – | – | – | –
MGESLFKGPRDYNPISSSICHLTNESDGHTTSLYGIGFGPFIITNKHLFRRNNGTLVVQSLHGVFKVKDTTTLQQHLVDGRDMIIIRMPKDFPPFPQKLKFREPQREERICLVTTNFQTKSMSSMVSDTSCTFPSGDGIFWKHWIQTKDGQCGSPLVSTRDGFIVGIHSASNFVNTNNYFTSVPKNFMELLTNQEAQQWVSGWRLNADSVLWGGHKVFMVKPEEPFQPVKEATQL [T174V] | 0.0614 | – | 0.0583 | – | 0.0834 | – | 0.066 | – | 0.0634 | 0.103 | – | – | – | – | – | – | –
MGESLFKGPRDYNPISSSICHLTNESDGHTTSLYGIGFGPFIITNKHLFRRNNGTLVVQSLHGVFKVKDTTTLQQHLVDGRDMIIIRMPKDFPPFPQKLKFREPQREERICLVTTNFQTKSMSSMVSDTSCTFPSGDGIFWKHWIQTKDGQCGSPLVSTRDGFIVGIHSASNFTNTNNIFTSVPKNFMELLTNQEAQQWVSGWRLNADSVLWGGHKVFMVKPEEPFQPVKEATQL [Y179I] | 0.0683 | 0.0543 | 0.0744 | 0.0611 | 0.0669 | 0.0705 | 0.0744 | – | 0.0633 | – | – | 0.0665 | 0.0646 | – | – | – | –
MGESLFKGPRDYNPISSSICHLTNESDGHTTSLYGIGFGPFIITNKHLFRRNNGTLVVQSLHGVFKVKDTTTLQQHLVDGRDMIIIRMPKDFPPFPQKLKFREPQREERICLVTTNFQTKSMSSMVSDTSCTFPSGDGIFWKHWIQTKDGQCGSPLVSTRDGFIVGIHSASNFTNTNNVFTSVPKNFMELLTNQEAQQWVSGWRLNADSVLWGGHKVFMVKPEEPFQPVKEATQL [Y179V] | 0.0683 | – | 0.0666 | – | – | 0.0574 | – | – | – | – | 0.0587 | – | 0.0634 | 0.0562 | 0.0632 | – | –
MGESLFKGPRDYNPISSSICHLTNESDGHTTSLYGIGFGPFIITNKHLFRRNNGTLVVQSLHGVFKVKDTTTLQQHLVDGRDMIIIRMPKDFPPFPQKLKFREPQREERICLVTTNFQTKSMSSMVSDTSCTFPSGDGIFWKHWIQTKDGQCGSPLVSTRDGFIVGIHSASNFTNTNNYATSVPKNFMELLTNQEAQQWVSGWRLNADSVLWGGHKVFMVKPEEPFQPVKEATQL [F180A] | 0.071 | – | 0.0749 | – | – | – | – | 0.0562 | – | – | – | – | 0.0616 | 0.0684 | – | 0.0429 | –
MGESLFKGPRDYNPISSSICHLTNESDGHTTSLYGIGFGPFIITNKHLFRRNNGTLVVQSLHGVFKVKDTTTLQQHLVDGRDMIIIRMPKDFPPFPQKLKFREPQREERICLVTTNFQTKSMSSMVSDTSCTFPSGDGIFWKHWIQTKDGQCGSPLVSTRDGFIVGIHSASNFTNTNNYFSSVPKNFMELLTNQEAQQWVSGWRLNADSVLWGGHKVFMVKPEEPFQPVKEATQL [T181S] | 0.0679 | – | 0.0694 | – | 0.0735 | – | 0.0797 | 0.0651 | – | – | – | 0.0432 | 0.0542 | 0.0928 | 0.0641 | – | –
MGESLFKGPRDYNPISSSICHLTNESDGHTTSLYGIGFGPFIITNKHLFRRNNGTLVVQSLHGVFKVKDTTTLQQHLVDGRDMIIIRMPKDFPPFPQKLKFREPQREERICLVTTNFQTKSMSSMVSDTSCTFPSGDGIFWKHWIQTKDGQCGSPLVSTRDGFIVGIHSASNFTNTNNYFTTVPKNFMELLTNQEAQQWVSGWRLNADSVLWGGHKVFMVKPEEPFQPVKEATQL [S182T] | 0.0598 | – | – | – | 0.0509 | – | – | 0.0621 | – | – | – | – | 0.0526 | 0.0809 | – | 0.0751 | –
MGESLFKGPRDYNPISSSICHLTNESDGHTTSLYGIGFGPFIITNKHLFRRNNGTLVVQSLHGVFKVKDTTTLQQHLVDGRDMIIIRMPKDFPPFPQKLKFREPQREERICLVTTNFQTKSMSSMVSDTSCTFPSGDGIFWKHWIQTKDGQCGSPLVSTRDGFIVGIHSASNFTNTNNYFTSVTKNFMELLTNQEAQQWVSGWRLNADSVLWGGHKVFMVKPEEPFQPVKEATQL [P184T] | 0.0682 | – | 0.066 | 0.0706 | 0.0654 | 0.052 | 0.0708 | 0.0537 | 0.0633 | 0.0442 | 0.0479 | 0.0565 | 0.0611 | 0.0699 | – | 0.0429 | 0.0689
MGESLFKGPRDYNPISSSICHLTNESDGHTTSLYGIGFGPFIITNKHLFRRNNGTLVVQSLHGVFKVKDTTTLQQHLVDGRDMIIIRMPKDFPPFPQKLKFREPQREERICLVTTNFQTKSMSSMVSDTSCTFPSGDGIFWKHWIQTKDGQCGSPLVSTRDGFIVGIHSASNFTNTNNYFTSVPKSFMELLTNQEAQQWVSGWRLNADSVLWGGHKVFMVKPEEPFQPVKEATQL [N186S] | 0.0604 | 0.0633 | – | 0.0871 | – | 0.0832 | 0.0538 | – | 0.0679 | – | 0.0622 | 0.0609 | 0.0873 | 0.0869 | – | – | 0.0739
MGESLFKGPRDYNPISSSICHLTNESDGHTTSLYGIGFGPFIITNKHLFRRNNGTLVVQSLHGVFKVKDTTTLQQHLVDGRDMIIIRMPKDFPPFPQKLKFREPQREERICLVTTNFQTKSMSSMVSDTSCTFPSGDGIFWKHWIQTKDGQCGSPLVSTRDGFIVGIHSASNFTNTNNYFTSVPKNLMELLTNQEAQQWVSGWRLNADSVLWGGHKVFMVKPEEPFQPVKEATQL [F187L] | 0.0635 | – | – | 0.092 | 0.0456 | 0.0636 | 0.0609 | 0.0742 | 0.0434 | – | – | 0.0676 | 0.0813 | 0.0575 | 0.0724 | – | –
